# From ChEMBL document CHEMBL4888484, “Replenishing the malaria drug discovery pipeline: Screening and hit evaluation of the MMV Hit Generation Library 1 (HGL1) against asexual blood stage Plasmodium falciparum ,using a nano luciferase reporter read-out” (2022)
# Out of some 150,000 compounds screened, about 540 (0.36%) showed an effect of 50% or more. Some of the results follow.
# Test system: Plasmodium falciparum
# Test: Primary screen in NF54 nanoGlo assay, in single point, at 2uM, 72h; a lower Z score goes with more inhibition
# Assay type: functional, Erythrocyte
# Settings: timepoint 72 hour
SMILES,% Inhibition [%],Z score
CC(C)(C)n1nnnc1[C@@H]1CC2(CCOCC2)C(=O)N1Cc1cccc(F)c1,-5,0.55
CC(=O)Oc1c(-c2ccc(NC(=O)C(C)C)cc2)c(-c2ccc(N(C)C)cc2)nn1-c1cc(C)ccc1C,-8,1.06
NCC1(NC(=O)CCOc2ccccc2)CCCC1,4,-0.53
COc1ccnc(C(=O)NCC[C@H]2CCOC2)c1,-15,1.96
COc1cccc([C@H]2CC(=O)Nc3c2c(C)nn3-c2ncnc3[nH]cnc23)c1,33,-3.7
Cc1cc(N2CCN(C(=O)c3c(F)cccc3F)CC2)nc(N2CCOCC2)n1,-9,1.1
COC1(C(=O)N2CCC[C@H](c3nc(-c4ccccc4)c[nH]3)C2)CCCCC1,-2,0.24
CC1CCCC(CC(=O)NCCCC(=O)O)C1 (stereo not given),-5,0.67
CCN(CC)c1ncnc2c1ncn2C1OC(CO)C(O)C1O (stereo not given),4,-0.46
CCC(=O)N1CCC[C@H]1c1nc(-c2ccccc2)c(C(C)C)o1,-4,0.54
CCCn1nc(Cc2cccnc2)nc1CCc1c[nH]c2ccccc12,1,-0.16
Cc1cccc(-n2ncc(C(=O)Nc3ccc(Cl)cc3)c2C2CCN(C(=O)OC(C)(C)C)CC2)c1,-11,1.68
C[C@H](O)CN1CCN(C(=O)c2nc3ccccc3s2)CC1,-10,1.88
Cc1c(CNc2nnc(C(C)C)s2)cc(C#N)n1C,0,-0.06
CC(=O)Nc1nc(C)c(S(=O)(=O)N2CCCCC2)s1,-12,1.32
Cc1nc(CN(CC#N)S(=O)(=O)N(C)C)cs1,-8,1.26
Cc1nnsc1C(=O)NCc1ccccc1-c1ccsc1,-3,0.51
O=C(c1cc2ccccn2c1)N1CCCCO1,-13,1.77
CCC[C@H](C)N1CC2(CCN(C(=O)CCc3cccnc3)CC2)OC1=O,-3,0.4
Cc1cc(C(=O)N2CCOc3ccc(C(=O)N4CCOCC4)cc3C2)no1,1,-0.2
O=C(Cc1ccc2c(c1)OCO2)N1CCn2nccc2C1,-9,1.43
c1ccc(OCCn2ccnc2-c2c[nH]cn2)cc1,0,-0.07

SMILES,% Inhibition [%],Z score
CC(C)=CCC/C(C)=C/CNC(=O)c1cc2n(n1)C[C@@H](O)CNC2=O,8,-1.11
Cc1ccc2c(Nc3ccc(Cl)c(F)c3)c(C(=O)N3CCC[C@H](C)C3)cnc2n1,-8,1.31
CC(=O)Nc1ccc(S(=O)(=O)N[C@H]2CO[C@H]3[C@@H]2OC[C@@H]3Nc2nccc(C(C)(C)C)n2)cc1,-2,0.37
O=S(=O)(c1cccc2nsnc12)N1CCc2[nH]c3ccc(F)cc3c2C1,-8,1
Cn1cc(S(=O)(=O)N[C@H]2CCN(CC3CCCC3)C2)cn1,-10,1.39
Cn1nncc1CN[C@@H]1COC(C)(C)O[C@@H]1c1ccccc1,-31,3.69
CC(C)c1ocnc1C(=O)Nc1ccccc1N1C(=O)N[C@@H](C)C1=O,1,-0.2
O=C(N[C@H]1CCc2ccccc21)c1cccc(S(=O)(=O)NCc2ccc3c(c2)OCO3)c1,-11,1.49
O=C(N[C@H]1CCCc2c1cnn2-c1ccccn1)c1ncccc1O,-13,1.69
CCCN1CCC(NC(=O)CCCc2ccccc2)CC1,-10,1.37
CCC1=NO[C@@H](CN(CC)Cc2noc(C3CCC3)n2)C1,-14,2.45
Cc1c(NC(=O)[C@H]2CCOC2)cnn1C,14,-1.6
CCC(C)CC(=O)N1CCC(C2(Cc3cccc(F)c3)NC(=O)N(CCN(C)C)C2=O)CC1 (stereo not given),-10,1.79
COCC(C)(C)c1noc(-c2ccccc2-c2nc(C)no2)n1,-7,1.4
CCc1[nH]nc(-c2ccc3c(c2)OCO3)c1NC(=O)Cc1cccc(OC)c1,-7,1.15
CN(C)CCN1CC(=O)N[C@@H](CC2CCCCC2)C1=O,2,-0.22
CC(C)NC(=O)[C@@H]1Cc2[nH]cnc2C2(CCN(Cc3ccsc3)CC2)N1,-8,1.29
CCc1c(C(=O)N2CC[C@](C)(C(=O)NC)C2)ccn1C,2,-0.26
COc1ccc(CCc2nc3nccc(-c4cccnc4)n3n2)cc1,-1,0.13
CO[C@@]12CC[C@@H](Oc3ccccn3)C[C@@H]1N(Cc1nc(C(C)C)no1)CC2,-4,0.83
O=C(Nc1cccc(C(F)(F)F)c1)c1scnc1CCc1ccncc1,-12,1.56
CCCn1nc(C)cc1NC(=O)c1cnc2ccccc2n1,-11,1.29

SMILES,% Inhibition [%],Z score
O=C(NCc1ccccc1)N1CCOC2(CCS(=O)(=O)CC2)C1,-18,1.91
Cc1c(C)c(C(=O)NCc2ccco2)n(Cc2ccc(F)cc2)c1C,-5,0.86
O=C(NCc1nnc2n1CCOC2)[C@]1(c2ccccc2)CCCO1,-16,2.18
Cc1ccc(CN2CCN(C(=O)c3c[nH]c(=O)c(Cl)c3)C[C@@H]2CCO)o1,-4,0.56
CC(C)c1cc(C(=O)N2CCC[C@@H]2C(=O)O)n[nH]1,-6,0.65
CC1CCN([C@@H](CNC(=O)c2ncoc2-c2cccs2)C(C)C)CC1,2,-0.3
Cc1nc2c(c(N3CCN(CC(F)(F)CO)CC3)n1)CCCC2,-6,1.01
CC1CC(C)CC(C(=O)N(C)Cc2nnc3c(=O)n(C)ccn23)C1 (stereo not given),-7,0.87
CCN1CCN(C2=NCCN2S(=O)(=O)c2ccc(C)cc2C)CC1,-16,1.85
CC(C)Oc1ccc(F)cc1S(=O)(=O)Nc1ccn(C)c(=O)n1,8,-1.6
Cc1ccc2nc(N3CCC(C(=O)NCCc4cccs4)CC3)[nH]c2c1,4,-0.74
C[C@H]1CCCCN1c1nnc(C(=O)NCCN2CCCCC2)c2ccccc12,-16,1.95
CC(C)[C@@H](CO)NCc1csc(C2CCCC2)n1,-9,1.02
COCCn1c(N)c(N(Cc2ccccc2)C(=O)c2c(C)noc2C)c(=O)[nH]c1=O,10,-1.36
Cn1c(=O)n(CC(=O)N2CCO[C@H]3COCC[C@H]32)c2ccccc21,-9,1.48
CC(=O)N1CCN(C(=O)c2cccc(-c3nc4ccccc4o3)c2)CC1,-14,1.8
Cc1nn(C)cc1C(=O)N1CCC(c2nnc(Cn3cccn3)n2C)CC1,-16,3.09
NC(=O)c1ccc(NCC2(Cn3ccnc3)CC2)nc1,-9,1.33
Cn1ncc2c(NCc3ccccc3)nc(N3CCC(N4CCCCC4)CC3)nc21,2,-0.39
CC1CN(CC(=O)NC2CCCC(C)C2C)CC(C)O1 (stereo not given),-3,0.38
COc1ccc(-c2csc(-n3ncc(-c4ccccn4)c3N)n2)cc1,-6,0.72
CCCN1C(=O)N[C@@H](CC(=O)N(C)Cc2nc3ccc(F)cc3[nH]2)C1=O,-18,1.59

SMILES,% Inhibition [%],Z score
O=C1COC2(CCN(C(=O)OCc3ccccc3)CC2)CN1,-29,3.46
CCC(C)(C)NC(=O)COc1cccc(C)c1,-2,0.39
c1csc(-c2noc(-c3cscn3)n2)c1,-5,1
CC(CN1CCN(C)CC1)NC1CCCCC1C1CCCCC1 (stereo not given),-1,0.12
O=C1CN(CCCO)C(=O)CCc2ccc(cc2)Oc2cccc(c2)CO[C@H]2CCN(C(=O)CN3CCCCC3=O)C[C@@H]2N1,-6,1.12
COc1cc(Br)ccc1CCCNC(=O)[C@H]1CCOC1,-2,0.41
CS(=O)(=O)N(CCN1CCCCC1)C1CN(C(=O)C2CCCCC2)C1,-7,0.97
Cc1ccccc1C(=O)Nc1cc(-c2cccs2)no1,-6,1.01
CN1CCC[C@H](CN(C)C(=O)c2cc(Cn3ccc4ccccc43)[nH]n2)C1,-1,0.18
C#CCNC(=O)C1CC2CCCCC2N1S(=O)(=O)c1ccc2c(c1)OCCO2 (stereo not given),-6,0.93
C[C@@H](CNS(C)(=O)=O)OC(=O)CCc1cccc(N(C)C)c1,-10,1.84
Cc1nc(C2CC(O)C2)cc(N2CCN(CCN(C)C)CC2)n1 (stereo not given),-7,0.65
Cn1c(CNCCn2cccn2)nc2ccccc21,-6,0.6
CN(CCC1CCOCC1)Cc1cc(Cl)cc(S(N)(=O)=O)c1,-6,0.86
OCC1(CNCc2ccc(Cl)o2)CCOCC1,-6,0.66
O=C(NC1CCCCCC1)c1cscn1,-3,0.4
O=S(=O)(c1ccc2c(c1)CCC2)N1CC[C@H](Cc2nncn2CC2CC2)C1,-15,2.62
CN(Cc1ccccc1)S(=O)(=O)N1C[C@H](O)[C@@H](F)C1,3,-0.63
O=C(c1cccs1)N1CC[C@H](Cc2nnc(-c3ccccc3)o2)C1,-16,2.26
